Where “and” joins values, the source holds several entries; their conditions need not be identical. Equal values may be shown once. This list was built around the results that the source calls inconclusive (neither active nor inactive); the mix of calls is not that of the screen. For part of these data: Where the call is inconclusive, the potency comes from a doubtful curve fit. Calls of active or inactive are those of the source. Unless noted, calls come from the whole dose curve; as a rule, active = well fitted curve in the direction sought with a large enough effect in the repeat runs; inconclusive = weak or mixed curves; inactive = no such curve, though single readings can be large; an effect the other way counts as inactive or inconclusive.
Assays:
[1] = qHTS assay to identify small molecule that activate the aryl hydrocarbon receptor (AhR) signaling pathway - cell viability counter screen (AID 743086); note: nearly all actives have a fitted effect of over 45% in size
Procedure, shortened: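 HepG2-AhR-luc (HG2L7.5c1) cells, 4000/well, were preincubated 5 h at 37C, exposed to compound in qHTS format for 24 hr at 37C, then given CellTiter-Fluor for 30 min; viability was read as fluorescence in the reporter wells.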

[2] = target: Peroxisome proliferator-activated receptor gamma (Homo sapiens) (UniProt P37231); assay: qHTS assay to identify small molecule agonists of the peroxisome proliferator-activated receptor gamma (PPARg) signaling pathway (AID 743094; active = well fitted activation curve with a large enough effect in the signal ratio in the repeat runs, not every such curve was filed as active; inconclusive = weak or mixed curves, or effect the other way; inactive = no such curve, though single readings can be large or run the other way; the % refers to the signal ratio; for activation: % is set by controls: 0 for no effect and ±100 for the full control effect); details: HEK293H PPARg-UAS-bla, beta-lactamase FRET ratio, 17 h; activation: at 57 µM (top of the series) unless noted
Sequence of UniProt P37231 (P37231 whole entry, looked up): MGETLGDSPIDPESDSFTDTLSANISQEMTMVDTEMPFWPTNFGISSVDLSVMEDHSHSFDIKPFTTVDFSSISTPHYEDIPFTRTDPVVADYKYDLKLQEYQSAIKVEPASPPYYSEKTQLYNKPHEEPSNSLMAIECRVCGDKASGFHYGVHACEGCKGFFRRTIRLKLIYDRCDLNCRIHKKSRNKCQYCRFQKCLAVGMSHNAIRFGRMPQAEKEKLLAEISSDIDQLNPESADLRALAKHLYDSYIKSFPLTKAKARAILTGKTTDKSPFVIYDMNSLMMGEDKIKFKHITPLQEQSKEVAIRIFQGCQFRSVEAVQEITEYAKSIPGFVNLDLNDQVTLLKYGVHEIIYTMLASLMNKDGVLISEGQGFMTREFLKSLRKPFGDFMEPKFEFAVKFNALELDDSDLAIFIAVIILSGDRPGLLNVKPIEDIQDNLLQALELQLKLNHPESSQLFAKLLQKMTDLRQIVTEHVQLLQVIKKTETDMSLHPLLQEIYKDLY
Procedure, shortened: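 HEK293H PPARg-bla cells, 5 h settle at 37C/5% CO2; compound (DMSO) 17 h, 37C; B/G FRET substrate 1 h RT; fluorescence intensity read-out. qHTS format.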

[3] = target: Peroxisome proliferator-activated receptor gamma (Homo sapiens) (UniProt P37231); assay: qHTS assay to identify small molecule antagonists of the peroxisome proliferator-activated receptor gamma (PPARg) signaling pathway (AID 743191; calls by dose curve; note: nearly all actives have a fitted effect of over 30% in size; for ratio activity, negative = inhibition: % is set by controls: 0 for no effect and ±100 for the full control effect); details: HEK293H PPARg-UAS-bla, beta-lactamase ratio, antagonist, 17 h; ratio activity, negative = inhibition: at 62.6 µM (top of the series) unless noted
Procedure, shortened: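 GeneBLAzer PPARg UAS-bla HEK293H cells carrying a UAS-driven beta-lactamase reporter were plated at 3000 cells/well, preincubated 5 h at 37C, then given compound for 17 h at 37C; LiveBLAzer B/G FRET substrate was read after 1 h at room temperature.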

[4] = qHTS assay to identify small molecule antagonists of the peroxisome proliferator-activated receptor gamma (PPARg) signaling pathway - cell viability counter screen (AID 743194); details: PPARg-bla HEK293H viability, CellTiter-Glo luminescence, 17 h, co-treated with 50 nM rosiglitazone; activity change, negative = cytotoxicity: at 62.6 µM (top of the series) unless noted; note: nearly all actives have a fitted effect of over 55% in size
Procedure, shortened: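 PPARg-UAS-bla HEK293H cells were plated, rested 5 h at 37 C, then treated with compounds plus rosiglitazone (50 nM final) for 17 h at 37 C; viability was then read by CellTiter-Glo luminescence after 30 min at room temperature.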

[5] = qHTS assay for small molecule agonists of the antioxidant response element (ARE) signaling pathway (AID 743202; active = well fitted activation curve with a large enough effect in the signal ratio in the repeat runs, not every such curve was filed as active; inconclusive = weak or mixed curves, or effect the other way; inactive = no such curve, though single readings can be large or run the other way; the % refers to the signal ratio; for activation: % is set by controls: 0 for no effect and ±100 for the full control effect); details: HepG2 ARE-bla reporter, beta-lactamase FRET, 16 h; activation: at 73.3 µM (top of the series) unless noted
Procedure, shortened: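 Following a 16 h, 37 C exposure of reporter HepG2 cells (ARE-driven beta-lactamase, 2,000 cells/well) to compounds, FRET substrate was applied for 2 h at room temperature and fluorescence intensity recorded.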

[6] = qHTS assay for small molecule agonists of the antioxidant response element (ARE) signaling pathway - cell viability counter screen (AID 743203; calls by dose curve; note: nearly all actives have a fitted effect of over 55% in size); details: ARE-bla HepG2 viability, CellTiter-Glo luminescence, 16 h; viability change, negative = cytotoxic: at 73.3 µM (top of the series)
Procedure, shortened: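 Luminescence read-out (CellTiter-Glo, 30 min at room temperature) measured cell viability in the same wells as the ARE beta-lactamase reporter. HepG2 ARE-bla cells were treated with compounds for 16 hrs at 37C/5% CO2.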

[7] = qHTS assay for small molecule activators of the heat shock response signaling pathway - cell viability counter screen (AID 743209); details: HSE-bla HeLa viability, CellTiter-Glo luminescence, 5 h; activity change, negative = cytotoxicity: at 62.6 µM (top of the series) unless noted; note: nearly all actives have a fitted effect of over 50% in size
Procedure, shortened: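 HSE-bla HeLa; 1500 cells/well; overnight 37 C, 5% CO2; compound 5 h 37 C; LiveBLAzer B/G substrate 2.5 h RT; CellTiter-Glo 30 min RT; luminescence.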

[8] = qHTS assay for small molecule activators of the heat shock response signaling pathway (AID 743210; active = well fitted activation curve with a large enough effect in the signal ratio in the repeat runs, with a control signal flat, not every such curve was filed as active; inconclusive = weak or mixed curves; the % refers to the signal ratio); details: HeLa HSE-bla reporter, beta-lactamase ratio, 5 h; activation: at 62.6 µM (top of the series)
Procedure, shortened: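 Heat shock element–beta-lactamase HeLa reporter cells; qHTS with compounds for 5 h at 37 C; detection by FRET substrate fluorescence after 2.5 h at RT.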

[9] = target: Peroxisome proliferator-activated receptor delta (Homo sapiens) (UniProt Q03181); assay: qHTS assay to identify small molecule agonists of the peroxisome proliferator-activated receptor delta (PPARd) signaling pathway (AID 743212; calls by dose curve); details: HEK293H PPARd-UAS-bla, beta-lactamase FRET ratio, 17 h; activation: at 62.6 µM (top of the series) unless noted
Sequence of UniProt Q03181 (Q03181 whole entry, looked up): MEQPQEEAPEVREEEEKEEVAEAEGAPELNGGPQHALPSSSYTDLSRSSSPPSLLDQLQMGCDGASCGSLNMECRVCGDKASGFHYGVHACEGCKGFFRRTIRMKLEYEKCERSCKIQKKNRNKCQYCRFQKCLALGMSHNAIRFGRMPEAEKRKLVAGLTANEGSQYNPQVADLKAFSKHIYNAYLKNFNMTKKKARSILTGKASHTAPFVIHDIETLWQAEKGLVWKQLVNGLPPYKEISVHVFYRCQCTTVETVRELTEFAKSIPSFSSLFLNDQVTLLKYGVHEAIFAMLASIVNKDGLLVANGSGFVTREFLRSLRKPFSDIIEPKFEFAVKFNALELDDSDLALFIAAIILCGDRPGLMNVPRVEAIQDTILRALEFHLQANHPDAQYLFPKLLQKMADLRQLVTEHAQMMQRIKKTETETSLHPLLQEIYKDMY
Procedure, shortened: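 Beta-lactamase reporter read by fluorescence (LiveBLAzer B/G FRET, 2 h, room temperature). Test agents, in DMSO, incubated at 37 C with PPARd-bla HEK293H cells.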

[10] = target: Peroxisome proliferator-activated receptor delta (Homo sapiens) (UniProt Q03181); assay: qHTS assay to identify small molecule antagonists of the peroxisome proliferator-activated receptor delta (PPARd) signaling pathway (AID 743215; active = well fitted inhibition curve with a large enough effect in the signal ratio in the repeat runs, not every such curve was filed as active; inconclusive = weak or mixed curves, or effect the other way; inactive = no such curve, though single readings can be large or run the other way; the % refers to the signal ratio;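 note: cells stimulated with agonist L165041 at 300 nM final during compound exposure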); details: HEK293H PPARd-UAS-bla, beta-lactamase FRET ratio, antagonist, 17 h; ratio activity, negative = inhibition: at 62 µM (top of the series) unless noted
Procedure, shortened: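 HEK293H GeneBLAzer PPARd UAS-bla reporter cells; cpd + L165041 300 nM final, 17 h 37 C; LiveBLAzer B/G FRET substrate 2 h RT; fluorescence intensity read-out. Antagonist mode.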

[11] = target: Bile acid receptor (Homo sapiens) (UniProt Q96RI1); assay: qHTS assay to identify small molecule antagonists of the farnesoid-X-receptor (FXR) signaling pathway (AID 743217; active = well fitted inhibition curve with a large enough effect in the signal ratio in the repeat runs, not every such curve was filed as active; inconclusive = weak or mixed curves, or effect the other way; inactive = no such curve, though single readings can be large or run the other way; the % refers to the signal ratio); details: HEK293T FXR-UAS-bla, beta-lactamase ratio, CDCA-stimulated, 16 h; activity change, negative = inhibition: at 62.6 µM (top of the series) unless noted
Sequence of UniProt Q96RI1 (Q96RI1 whole entry, looked up): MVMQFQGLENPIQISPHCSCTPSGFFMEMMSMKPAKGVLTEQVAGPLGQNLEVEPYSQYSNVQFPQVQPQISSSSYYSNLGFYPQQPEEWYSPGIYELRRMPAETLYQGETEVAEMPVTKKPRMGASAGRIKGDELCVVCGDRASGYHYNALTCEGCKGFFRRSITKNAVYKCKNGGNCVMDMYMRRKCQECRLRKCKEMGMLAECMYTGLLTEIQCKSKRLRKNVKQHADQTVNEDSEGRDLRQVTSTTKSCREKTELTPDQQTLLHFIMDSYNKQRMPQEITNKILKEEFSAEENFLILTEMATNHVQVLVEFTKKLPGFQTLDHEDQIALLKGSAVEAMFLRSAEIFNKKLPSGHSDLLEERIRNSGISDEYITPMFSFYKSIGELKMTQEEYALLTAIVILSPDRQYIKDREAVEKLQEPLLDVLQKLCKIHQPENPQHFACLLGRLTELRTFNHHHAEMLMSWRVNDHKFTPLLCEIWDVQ
Procedure, shortened: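 Read-out: beta-lactamase FRET fluorescence (LiveBLAzer B/G substrate, 2 h, room temperature) in GeneBLAzer FXR-UAS-bla HEK 293T cells. Compounds were co-dosed with 50 uM chenodeoxycholic acid (final) and incubated 16 h at 37 °C.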

[12] = qHTS assay to identify small molecule agonists of the farnesoid-X-receptor (FXR) signaling pathway - cell viability counter screen (AID 743218); details: FXR-bla HEK293T viability, CellTiter-Glo luminescence, 16 h; viability change, negative = cytotoxic: at 62.6 µM (top of the series) unless noted; note: nearly all actives have a fitted effect of over 45% in size
Procedure, shortened: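 Luminescence from CellTiter-Glo, read after 30 min at RT, reports viability of GeneBLAzer FXR-UAS-bla HEK 293T cells treated 16 h with compounds in the wells used for the beta-lactamase reporter.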

[13] = qHTS assay to identify small molecule antagonists of the farnesoid-X-receptor (FXR) signaling pathway - cell viability counter screen (AID 743221; active = well fitted cell-killing curve with a large enough effect in the repeat runs, not every such curve was filed as active; inconclusive = weak or mixed curves, or effect the other way; inactive = no such curve, though single readings can be large or run the other way; note: nearly all actives have a fitted effect of over 50% in size); details: FXR-bla HEK293T viability, CellTiter-Glo luminescence, 16 h; activity change, negative = cytotoxicity: at 62.6 µM (top of the series)
Procedure, shortened: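 FXR-UAS-bla HEK 293T cells were treated with test compounds plus chenodeoxycholic acid (50 uM final) for 16 h at 37 C. Cell viability in the same wells was then read as CellTiter-Glo luminescence after 30 min at room temperature.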

[14] = target: Vitamin D3 receptor (Homo sapiens) (UniProt P11473); assay: qHTS assay to identify small molecule agonists of the vitamin D receptor (VDR) signaling pathway (AID 743222; calls by dose curve); details: HEK293T VDR-UAS-bla, beta-lactamase FRET ratio, 16 h; activation: at 63.5 µM (top of the series) unless noted
Sequence of UniProt P11473 (P11473 whole entry, looked up): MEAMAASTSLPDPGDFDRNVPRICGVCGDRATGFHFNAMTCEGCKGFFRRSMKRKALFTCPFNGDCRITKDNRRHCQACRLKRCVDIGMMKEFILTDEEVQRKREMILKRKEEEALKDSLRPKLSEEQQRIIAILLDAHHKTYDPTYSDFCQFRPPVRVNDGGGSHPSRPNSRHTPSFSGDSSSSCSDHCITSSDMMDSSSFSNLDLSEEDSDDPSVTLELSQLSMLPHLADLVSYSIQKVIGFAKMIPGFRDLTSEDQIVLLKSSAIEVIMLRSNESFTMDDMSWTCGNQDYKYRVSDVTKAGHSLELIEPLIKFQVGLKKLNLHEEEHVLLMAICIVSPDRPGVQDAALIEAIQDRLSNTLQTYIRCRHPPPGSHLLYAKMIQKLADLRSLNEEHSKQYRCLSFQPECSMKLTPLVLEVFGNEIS
Procedure, shortened: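 Beta-lactamase reporter readout (LiveBLAzer B/G FRET, 2 h RT) in VDR-bla cells after 16 h compound treatment at 37C, 5% CO2; cells pre-incubated 4 h before pin transfer of DMSO solutions.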

[15] = target: Vitamin D3 receptor (Homo sapiens) (UniProt P11473); assay: qHTS assay to identify small molecule antagonists of the vitamin D receptor (VDR) signaling pathway (AID 743223; active = well fitted inhibition curve with a large enough effect in the signal ratio in the repeat runs, not every such curve was filed as active; inconclusive = weak or mixed curves, or effect the other way; inactive = no such curve, though single readings can be large or run the other way; the % refers to the signal ratio; for activity change, negative = inhibition: % is set by controls: 0 for no effect and ±100 for the full control effect); details: VDR-UAS-bla HEK293T, beta-lactamase FRET ratio, 16 h; activity change, negative = inhibition: at 61 µM (top of the series) unless noted
Procedure, shortened: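 VDR-bla cells were plated, incubated 4 h at 37C, then given compound and 1alpha,25-dihydroxyvitamin D3 (3 nM final). After 16 h at 37C, LiveBLAzer B/G FRET substrate was added for 2 h at room temperature and fluorescence read.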

[16] = qHTS assay to identify small molecule antagonists of the vitamin D receptor (VDR) signaling pathway - cell viability counter screen (AID 743225); details: VDR-bla HEK293T viability, CellTiter-Glo luminescence, 16 h; viability change, negative = cytotoxic: at 61 µM (top of the series) unless noted; note: nearly all actives have a fitted effect of over 50% in size
Procedure, shortened: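 VDR-bla HEK 293T cells, 4 h pre-incubation at 37C, then compound plus 1-alpha,25-dihydroxyvitamin D3 (3 nM final) for 16 h. After the beta-lactamase FRET read, CellTiter-Glo was added to the same wells; luminescence after 30 min at room temperature.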

[17] = qHTS assay to identify small molecule agonists of the peroxisome proliferator-activated receptor delta (PPARd) signaling pathway - cell viability counter screen (AID 743211); details: PPARd-bla HEK293H viability, CellTiter-Glo luminescence, 17 h; activity change, negative = cytotoxicity: at 62.6 µM (top of the series); note: nearly all actives have a fitted effect of over 55% in size
Procedure, shortened: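 PPARd-bla HEK293H cells (UAS-beta-lactamase reporter) were treated with compounds for 17 h at 37 C. Viability was then read in the same wells by CellTiter-Glo luminescence after 30 min at room temperature.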

[18] = qHTS assay to identify small molecule antagonists of the peroxisome proliferator-activated receptor delta (PPARd) signaling pathway - cell viability counter screen (AID 743213); details: PPARd-bla HEK293H viability, CellTiter-Glo luminescence, 17 h; viability change, negative = cytotoxic: at 62 µM (top of the series) unless noted; note: nearly all actives have a fitted effect of over 50% in size
Procedure, shortened: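 Luminescence from CellTiter-Glo, added after the bla read and incubated 30 min at room temperature, gives viability of HEK293H PPARd-bla cells exposed to compounds for 17 h at 37 C with 300 nM L165041.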

[19] = qHTS assay to identify small molecule agonists of the vitamin D receptor (VDR) signaling pathway - cell viability counter screen (AID 743224); details: VDR-bla HEK293T viability, CellTiter-Glo luminescence, 16 h; activity change, negative = cytotoxicity: at 62.6 µM (top of the series) unless noted; note: nearly all actives have a fitted effect of over 50% in size
Procedure, shortened: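 Cytotoxicity counter screen: VDR-bla cells, 16 h compound exposure at 37C, 5% CO2; CellTiter-Glo luminescence, 30 min RT, same wells as bla read.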
Potency is the fitted concentration of half-maximal effect; tags give direction and shape of the fitted curve or compound fluorescence and quenching.

Oc1cc2ccccc2c2ccccc12
Potency [1]: active: 24.3 µM | Potency [2]: inconclusive: 12.3 µM [rising, partial curve] | Potency [3]: inconclusive: 4.36 µM [full curve] | Potency [4]: active: 3.89 µM | Potency [5]: inconclusive: 9.69 µM [falling, full curve] | Potency [6]: active: 9.69 µM | Potency [7]: active: 9.77 µM | Potency [8]: inconclusive: 21 µM | Potency [9]: inconclusive: 7.76 µM [rising, full curve] | Potency [10]: inconclusive: 4.9 µM | Potency [11]: inconclusive: 8.71 µM [rising, full curve] | Potency [12]: active: 11 µM | Potency [13]: active: 9.77 µM | Potency [14]: inconclusive: 1.74 µM [full curve] | Potency [15]: inconclusive: 4.36 µM [rising, full curve] | Potency [16]: active: 4.36 µM

O=C(OC[C@H]1O[C@@H](OC(=O)c2cc(O)c(O)c(OC(=O)c3cc(O)c(O)c(O)c3)c2)[C@H](OC(=O)c2cc(O)c(O)c(OC(=O)c3cc(O)c(O)c(O)c3)c2)[C@@H](OC(=O)c2cc(O)c(O)c(OC(=O)c3cc(O)c(O)c(O)c3)c2)[C@@H]1OC(=O)c1cc(O)c(O)c(OC(=O)c2cc(O)c(O)c(O)c2)c1)c1cc(O)c(O)c(OC(=O)c2cc(O)c(O)c(O)c2)c1
Potency [1]: active: 21.1 µM and active: 16.5 µM | Potency [2]: inconclusive: 5.35 µM [fluorescent, single point] | activation [2]: inconclusive: -13.2% [at 26.2 µM] | ratio activity, negative = inhibition [3]: inconclusive: -31.6% [at 29.1 µM] | Potency [4]: inconclusive: 9.36 µM [cytotoxic, partial curve, poor fit] | activation [5]: inconclusive: 40.9% [at 34.3 µM] | Potency [6]: inconclusive: 18.5 µM [cytotoxic, single point] | Potency [7]: inconclusive: 9.36 µM [cytotoxic, partial curve] | Potency [8]: inconclusive: 12.2 µM | Potency [17]: inconclusive: 16.6 µM [cytotoxic, single point] | Potency [18]: active: 13.2 µM | activity change, negative = inhibition [15]: inconclusive: -45.3% [at 28.5 µM] | Potency [19]: inconclusive: 14.8 µM [cytotoxic, single point] | viability change, negative = cytotoxic [16]: inconclusive: -30.7% [cytotoxic] [at 28.5 µM]

Reference: PubChem BioAssay (Tox21)
